{
  "source": "paper PMC12040169",
  "about": "(PLOS Biology, 2025)",
  "note": "Some of the results follow.",
  "data": [
    {"system": "T1, C. trachomatis L2/434/Bu expressing GFP (CTL2-GFP)", "T1 construct": "L2/434/Bu GFP intracellular growth in HeLa cells", "parameters": "species or system HeLa; C. trachomatis total inclusion area by high-content imaging, normalised to DMSO", "details": "total inclusion area; 28.5 h, 10 µM; inhibitor", "summary_of_the_method": "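Following bulk GFP and resorufin fluorescence reads, infected cells were fixed, Hoechst-stained and imaged on a high-content platform. Inclusion total area and number per well served as growth proxies; nuclei counts indicated host viability. MICs were derived as for the fluorescence assay.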", "values": [
      {"smiles": "CCOC(=O)CC1C(=O)NCCN1C/C=C/c1ccccc1", "note": "(stereo not shown) [CBK269922]", "% of control remaining": 104.981},
      {"smiles": "O=C(NCC1Cc2ccccc2O1)c1ccc(Br)cc1Cl", "note": "(stereo not shown) [CBK298323]", "% of control remaining": 85.364},
      {"smiles": "CCn1cc(S(=O)(=O)NCc2ccc3[nH]c4c(c3c2)CCCC4)cn1", "note": "[CBK307225]", "% of control remaining": 59.2631},
      {"smiles": "NC(=O)c1ccc(NC(=O)N2CCN(CCN3CCOCC3)CC2)cc1", "note": "[CBK155831]", "% of control remaining": 87.909},
      {"smiles": "O=C1CCCN1CCCNC(=O)N1CCCC(CO)C1", "note": "(stereo not shown) [CBK156063]", "% of control remaining": 102.449},
      {"smiles": "O=C(C1=Cc2ccccc2OC1)N1CCC(c2ccncc2)CC1", "note": "[CBK282339]", "% of control remaining": 81.7053},
      {"smiles": "CC(C)C[C@@H]1N[C@H](C(=O)NCC2CCOCC2)Cc2c[nH]c3cccc1c23", "note": "[CBK289427]", "% of control remaining": 89.0183},
      {"smiles": "O=C(O)c1cccc(-c2cnc(NCC3CC3)c(C(=O)NCC(F)(F)F)c2)c1", "note": "[CBK106420]", "% of control remaining": 79.6649},
      {"smiles": "FC(F)(F)c1nc2ccccc2nc1SCCOc1ccccc1", "note": "[CBK103726]", "% of control remaining": 108.754},
      {"smiles": "Cc1cc(C)c(C)c(S(=O)(=O)N(CCO)CCO)c1C", "note": "[CBK269082]", "% of control remaining": 50.9308},
      {"smiles": "NC(=O)c1cccnc1-c1nc2ccccc2s1", "note": "[CBK287930]", "% of control remaining": 103.057},
      {"smiles": "COc1cccc(C2(NC(=O)CCn3nccc3C)CCCC2)c1", "note": "[CBK283601]", "% of control remaining": 81.4649},
      {"smiles": "Cn1nccc1CCC(=O)N1CC[C@H]2NC(=O)c3ccccc3OCCCCC[C@H]2C1", "note": "[CBK292028]", "% of control remaining": 109.868},
      {"smiles": "CS(=O)(=O)N(Cc1ccco1)Cc1cc2ccccc2nc1O", "note": "[CBK269434]", "% of control remaining": 87.2819},
      {"smiles": "Nc1ccc2c(-c3cc(F)cc(F)c3)ccnc2n1", "note": "[CBK067638]", "% of control remaining": 93.7443},
      {"smiles": "Clc1ccc(OC/C=C2\\Oc3ccc(Cl)cc3C2N2CCOCC2)c(Cl)c1", "note": "(stereo not shown) [CBK262753]", "% of control remaining": 123.589},
      {"smiles": "Cc1c(CN(C)CC(=O)Nc2cccc(C(F)(F)F)c2)cnn1C", "note": "[CBK304341]", "% of control remaining": 27.2596},
      {"smiles": "O=C(Nc1ncn(CC(=O)N2CCCCCC2)n1)c1cccs1", "note": "[CBK304953]", "% of control remaining": 48.7689},
      {"smiles": "NC(=O)C1CCN(C(=O)c2cc3c(=O)n4ccccc4nc3s2)CC1", "note": "[CBK296938]", "% of control remaining": 73.7603},
      {"smiles": "O=C1NC=CCC12CCCN(S(=O)(=O)c1ccc(F)cc1)C2", "note": "(stereo not shown) [CBK284797]", "% of control remaining": 92.4134},
      {"smiles": "O=C(Nc1cccnc1)C1CCN(S(=O)(=O)c2ccc(Oc3ccccc3)cc2)CC1", "note": "[CBK269621]", "% of control remaining": 94.9437},
      {"smiles": "O=C(/C=C/c1cccc([N+](=O)[O-])c1)NC(=S)Nc1ccc(-c2nc3ccccc3[nH]2)cc1", "note": "[CBK264376]", "% of control remaining": 80.952},
      {"smiles": "Cc1ccc(NC(=O)CCc2cccnc2)c(C)n1", "note": "[CBK200386]", "% of control remaining": 85.5082},
      {"smiles": "CCc1nc2ccc(C(=O)N(C)CCN(C)C)cn2c1N(CC)C(=O)NCCc1ccccc1", "note": "[CBK147036]", "% of control remaining": 107.268},
      {"smiles": "CCN1CCN(Cc2c[nH]c3ccccc23)CC1", "note": "[CBK261540]", "% of control remaining": 90.6924},
      {"smiles": "CC(C)N1C[C@@H](C(=O)NC(C)(C)C)[C@@]2(Cc3ccccc3C(=O)N2)C1", "note": "[CBK285295]", "% of control remaining": 73.229},
      {"smiles": "CC(C)(C)C(=O)Nc1ccc(-c2ccc(NC(=O)C(C)(C)C)c(C(=O)O)c2)cc1C(=O)O", "note": "[CBK261392]", "% of control remaining": 96.2294},
      {"smiles": "NC1CCN(C(=O)Cn2ccc3ccnc(-c4cccs4)c32)CC1", "note": "[CBK284750]", "% of control remaining": 99.8829},
      {"smiles": "CCCCOC(=O)c1c(N)n(CCOC)c2nc3ccccc3nc12", "note": "[CBK264961]", "% of control remaining": 107.863},
      {"smiles": "CN(C)c1ccc(CN(CCO)CCO)cc1", "note": "[CBK261921]", "% of control remaining": 69.3243},
      {"smiles": "CCCCc1ccc(-c2cnc(N)c3ncccc23)cc1", "note": "[CBK067588]", "% of control remaining": 91.9903},
      {"smiles": "COCCNc1nc2c(c(N3CCCC(CO)C3)n1)CCNCC2", "note": "(stereo not shown) [CBK307242]", "% of control remaining": 62.9155},
      {"smiles": "Cn1nc2c(c1O)CCCC2", "note": "[CBK089897]", "% of control remaining": 94.9412},
      {"smiles": "CCc1cc2c(=O)c(-c3cnn(-c4ccccc4)c3)c(C(F)(F)F)oc2c(CN2CCCCC2)c1O", "note": "[CBK264458]", "% of control remaining": 104.763},
      {"smiles": "CCOc1cc(OCC)nc(Oc2ccc(C(=O)OC)cc2)n1", "note": "[CBK107733]", "% of control remaining": 103.677},
      {"smiles": "COCCNC(=O)c1ccc(-c2ccc3c(c2)OCO3)nc1N(C)C", "note": "[CBK106050]", "% of control remaining": 88.9681},
      {"smiles": "Cc1cc(=O)n2c(C(=O)Nc3ccc(C(=O)O)cc3)c(C(=O)Nc3cccc(C)c3C)sc2n1", "note": "[CBK297547]", "% of control remaining": 102.003},
      {"smiles": "COc1cccc(N2CCN(C(C(=O)O)c3cn(C)c4cc(C(=O)O)ccc34)CC2)c1", "note": "(stereo not shown) [CBK286701]", "% of control remaining": 110.917},
      {"smiles": "COc1cc(Br)c(-c2nnn[nH]2)cc1OC", "note": "[CBK270093]", "% of control remaining": 86.5719},
      {"smiles": "O=S(=O)(NCc1ccc2c(c1)OCO2)c1ccc2c(c1)oc1ccccc12", "note": "[CBK268308]", "% of control remaining": 101.359}
    ]}
  ]
}
